The list shows a part of the results.
These sequences were tested on T1, Caupolican (Caup) homeodomain DNA-binding domain (assay: PBM E-score (8-mer, recovered from the published 9-mer minima) (E-score (dimensionless, -0.5 to 0.5)); Drosophila protein; higher = stronger relative binding preference, active = 0.31 or more).
T1 sequence: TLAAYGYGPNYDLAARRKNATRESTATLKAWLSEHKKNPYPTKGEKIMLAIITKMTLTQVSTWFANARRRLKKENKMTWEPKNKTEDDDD
Description: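 Protein binding microarray (PBM): in vitro transcribed/translated Caupolican (Caup) homeodomain DNA-binding domain (residues 214-303) applied at 100 nM to a universal 8-mer PBM array (Agilent AMADID 015681). The 8-mer enrichment score (E-score, range -0.5 to 0.5) was computed, and each 9-mer score is the minimum E-score of its two constituent 8-mers. The E-score is the same for a 9-mer and its reverse complement; 0.31 is the stated binding threshold.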
GGGCCTAA was tested, and the “PBM E-score” value was inactive: -0.158. ATGTCGTC was tested, and the “PBM E-score” value was inactive: 0.28. ACTTCGCC was tested, and the “PBM E-score” value was inactive: -0.108. For ATTATGTG, the “PBM E-score” value was inactive: 0.197. In the case of ACTTATTG, the “PBM E-score” value is reported as inactive: 0.0572. In the case of AAGGGTTC, the “PBM E-score” value is reported as inactive: -0.134. AAACTGAA was tested, and the “PBM E-score” value was inactive: 0.0922. For ACGACCGG, the “PBM E-score” value was inactive: 0.00084. For ATGAAAAG, the “PBM E-score” value was inactive: 0.00542. With CTCTAGAC the “PBM E-score” value was inactive: -0.0611. In the case of ACATACTA, the “PBM E-score” value is reported as inactive: 0.266. For AGCCGCAT, the “PBM E-score” value was inactive: -0.0925. ACCGCGGG was tested, and the “PBM E-score” value was inactive: -0.115. In the case of CTAAAGAA, the “PBM E-score” value is reported as inactive: 0.0106. For AACCACCA, the “PBM E-score” value was inactive: 0.0384. AACGCTTC was tested, and the “PBM E-score” value was inactive: 0.00522. For AGAGCCAG, the “PBM E-score” value was inactive: -0.123. AAATCGTC was tested, and the “PBM E-score” value was inactive: 0.0174. In the case of ACCACAGA, the “PBM E-score” value is reported as at least 0.0585. In the case of ATATGACG, the “PBM E-score” value is reported as inactive: 0.109. In the case of CATCTCGG, the “PBM E-score” value is reported as inactive: -0.106. For ACTGCTTA, the “PBM E-score” value was inactive: -0.0417. With CACCATTA the “PBM E-score” value was inactive: 0.0852. In the case of ATCTAGCA, the “PBM E-score” value is reported as at least 0.0809. For GGCGCTTA, the “PBM E-score” value was inactive: -0.249. For ATATTAAT, the “PBM E-score” value was inactive: 0.197. CCTTGATA was tested, and the “PBM E-score” value was inactive: 0.105. With ATTGCACC the “PBM E-score” value was inactive: 0.08. TAAATTAA was tested, and the “PBM E-score” value was inactive: 0.124. AGCGCTTA was tested, and the “PBM E-score” value was inactive: -0.155. ATGTGAAC was tested, and the “PBM E-score” value was inactive: 0.184. For ACGACAAC, the “PBM E-score” value was active: 0.339. With CTCAAACA the “PBM E-score” value was inactive: 0.237. With TAGGCCCA the “PBM E-score” value was inactive: -0.144. ACTGCCCG was tested, and the “PBM E-score” value was inactive: -0.0447. For GTTGACTA, the “PBM E-score” value was inactive: 0.0861. With AACTCTCT the “PBM E-score” value was inactive: -0.0596. GCCTTGGA was tested, and the “PBM E-score” value was inactive: -0.14. In the case of ACATGTAA, the “PBM E-score” value is reported as active: 0.468. For AGAGGCTG, the “PBM E-score” value was inactive: -0.0654. In the case of AAAGTAGG, the “PBM E-score” value is reported as inactive: 0.0723. For ACGATAAA, the “PBM E-score” value was inactive: 0.0409. In the case of ACGTCCCT, the “PBM E-score” value is reported as at least -0.0517. For ATATCTGC, the “PBM E-score” value was at least 0.122. In the case of ACAATACC, the “PBM E-score” value is reported as inactive: 0.195. For GGGGTACA, the “PBM E-score” value was inactive: 0.0877. For CCTCAGAC, the “PBM E-score” value was inactive: -0.0774. In the case of CCAAATCG, the “PBM E-score” value is reported as inactive: 0.0398. With AACAGGTG the “PBM E-score” value was inactive: 0.223. With GCAATTCC the “PBM E-score” value was inactive: -0.0753. ACCACATC was tested, and the “PBM E-score” value was inactive: 0.16. With AACTTTGG the “PBM E-score” value was inactive: 0.05. In the case of ATGTTGAG, the “PBM E-score” value is reported as inactive: 0.132. For CTCTCGTA, the “PBM E-score” value was inactive: -0.00442. In the case of ACCACGTC, the “PBM E-score” value is reported as inactive: 0.107. With AGCAGTAC the “PBM E-score” value was inactive: 0.0873. CTGACCAA was tested, and the “PBM E-score” value was inactive: -0.00826. In the case of AGCAACCT, the “PBM E-score” value is reported as inactive: -0.0294. In the case of GGGGAACC, the “PBM E-score” value is reported as inactive: -0.151. TGGTCACA was tested, and the “PBM E-score” value was at least 0.0381. For ACCTGACG, the “PBM E-score” value was inactive: -0.123. For ACCGGGTG, the “PBM E-score” value was inactive: -0.178. ACCGTGAT was tested, and the “PBM E-score” value was inactive: 0.0802. In the case of GCACCCCC, the “PBM E-score” value is reported as inactive: -0.2. GTTAAACA was tested, and the “PBM E-score” value was active: 0.339. For CGCTAATA, the “PBM E-score” value was inactive: 0.0861. For ATTGACCA, the “PBM E-score” value was inactive: 0.0614. For TCGCAACA, the “PBM E-score” value was inactive: 0.0932. For GATTAGCA, the “PBM E-score” value was inactive: 0.0136. CTGCCTCA was tested, and the “PBM E-score” value was inactive: -0.0856. In the case of GATGCCCC, the “PBM E-score” value is reported as inactive: -0.249. For AAGTGGCA, the “PBM E-score” value was at least -0.0302. For AGCCCCGC, the “PBM E-score” value was at least -0.117. CTGGGGCC was tested, and the “PBM E-score” value was inactive: -0.313. With AAACAAGT the “PBM E-score” value was inactive: 0.302. In the case of ACTACCGG, the “PBM E-score” value is reported as inactive: -0.0471. For GCAATGGA, the “PBM E-score” value was inactive: -0.0225. In the case of ATACTCGC, the “PBM E-score” value is reported as inactive: -0.0116. In the case of CTAGAATA, the “PBM E-score” value is reported as inactive: 0.104. For GACACTAC, the “PBM E-score” value was inactive: 0.148. For CGCGTAGC, the “PBM E-score” value was inactive: -0.153. For CCCTACGG, the “PBM E-score” value was inactive: -0.2. For GATCACGA, the “PBM E-score” value was inactive: 0.0695. With AATTCGCA the “PBM E-score” value was inactive: 0.0279. For CTAACACC, the “PBM E-score” value was inactive: 0.107. With CGAGCTCG the “PBM E-score” value was inactive: -0.14. With GGCGTAGA the “PBM E-score” value was inactive: -0.0914. With GATGCCGC the “PBM E-score” value was inactive: -0.157. In the case of GGATCCAC, the “PBM E-score” value is reported as inactive: -0.157. For CAGAGGTA, the “PBM E-score” value was inactive: -0.00113. In the case of GGGCTCAA, the “PBM E-score” value is reported as inactive: -0.142. GTCTTCAA was tested, and the “PBM E-score” value was inactive: 0.0602. ATACATCA was tested, and the “PBM E-score” value was active: 0.334. AAACGGCA was tested, and the “PBM E-score” value was inactive: -0.00163. With ACTAGCGA the “PBM E-score” value was at least 0.0576. CAGACATA was tested, and the “PBM E-score” value was inactive: 0.175. With CCGCGGAG the “PBM E-score” value was inactive: -0.184. CCTTCAGC was tested, and the “PBM E-score” value was inactive: -0.194. TCCAAGGA was tested, and the “PBM E-score” value was inactive: -0.0885. AGTCTAGA was tested, and the “PBM E-score” value was inactive: -0.0275. ATTGAGTG was tested, and the “PBM E-score” value was inactive: 0.0339. With GATCAGGC the “PBM E-score” value was inactive: -0.0491. ACGTCAAC was tested, and the “PBM E-score” value was inactive: 0.106. For CTTCAGTC, the “PBM E-score” value was inactive: -0.0898. With TCTTCGCA the “PBM E-score” value was at least -0.0006. For AACGAAGG, the “PBM E-score” value was inactive: -0.0947. For TACTCCAA, the “PBM E-score” value was inactive: 0.0614. GTCGCAGA was tested, and the “PBM E-score” value was inactive: -0.055. With AATCTTGT the “PBM E-score” value was inactive: 0.298. For ACCCTCCC, the “PBM E-score” value was inactive: -0.143. CCATTTGA was tested, and the “PBM E-score” value was inactive: -0.0116. For CGTGCTAA, the “PBM E-score” value was at least 0.0513. For GATCGACA, the “PBM E-score” value was inactive: 0.171.

Source: the supplement of paper PMC3724861
